According to PubChem BioAssay (NCI):
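Where inhibition never reached the appropriate level, the endpoint shown equals the highest concentration tested. Otherwise, values were interpolated linearly from a five-concentration, 48-hour dose response in 96-well plates. Abbreviation: GI50, concentration required for 50% inhibition of growth. TGI is the concentration that stops growth completely.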

System: NCI-H322M lung
Test: NCI-60 cell line screen, 48 h

**Q.** `CCOC(=O)/C=C/C1(CCOC(C)=O)CCCCC1` was tested. Which TGI did it give?
**A.** > 10 µM

**Q.** `CCOC(=O)/C=C\C(C#N)(C#N)N=Cc1ccsc1` was tested. Which TGI did it give?
**A.** 33.8 µM

**Q.** Which GI50 does the source give for `COC1=C(OC)[C@]2(OC)c3c(O)c(OC)c4c(c3O[C@@]23O[C@@H](c2ccccc2)CC=C3C1=O)[C@@H](OC)C[C@H](c1ccccc1)O4` here?
**A.** 1.81 µM

**Q.** What about the TGI of the same molecule?
**A.** 3.4 µM

**Q.** How did the TGI turn out when `C=C[C@]1(O[Si](C)(C)C)C[C@@]2(C(=O)OCC)C(O)C(=O)N3CCc4cc(OC)c(OC)cc4[C@]312` (stereo partly drawn) was run?
**A.** > 100 µM

**Q.** Which TGI does the source give for `COC(=O)CCC(NC(=S)N/N=C(\C)c1cnccn1)C(=O)OC` (stereo not drawn) here?
**A.** > 100 µM

**Q.** Which TGI does the source give for `O=[N+]([O-])/C=C/c1ccc(Cl)cc1Cl` here?
**A.** 30.1 µM

**Q.** Which TGI does the source give for `CSc1ccc2c(cc1=O)C(NC(=O)c1ccc(C#N)cc1)CCc1cc(O)c(O)c(O)c1-2` (stereo not drawn) here?
**A.** > 100 µM

**Q.** Which TGI does the source give for `NC(=O)CC(N)c1nn[nH]n1` (stereo not drawn) here?
**A.** > 100 µM

**Q.** What does the source list for `CC1CCN(CCOc2ccc(CNc3ccc4nc(CCC5CCCCC5)[nH]c4c3)cc2)CC1`?
**A.** GI50: 1.94 µM; TGI: 4.37 µM

**Q.** With `COc1ccc(NC/C=C/C(=C/COC(C)=O)OC(C)=O)cc1` as the molecule, how does the TGI read?
**A.** 20.4 µM

**Q.** What does the source list for `N#Cc1cccc(Nc2ncc(-c3ccccc3)o2)c1`?
**A.** GI50: 13.7 µM; TGI: > 25 µM

**Q.** Which TGI does the source give for `Nc1n[nH]c(CCCCCCCc2nc(N)n[nH]2)n1` here?
**A.** > 100 µM

**Q.** For `N#Cc1cc2c(cc1Cl)Sc1nnc(Nc3cccc4ccccc34)n1S2(=O)=O`, which GI50 is on record?
**A.** 5.2 µM

**Q.** And the TGI?
**A.** 18.3 µM

**Q.** How did the TGI turn out when `Cc1cccc(CNc2ncnc3[nH]ncc23)c1` was run?
**A.** > 100 µM

**Q.** How did the GI50 turn out when `Nc1nc(-c2ccc(Cl)cc2)nc2c1sc(=S)n2-c1ccccc1` was run?
**A.** 4.47 µM

**Q.** What about the TGI of the same molecule?
**A.** 23.7 µM

**Q.** For `Cc1ccc(S(=O)(=O)N2CCN(S(=O)(=O)c3ccc(C)cc3)CCN(S(=O)(=O)c3ccc(C)cc3)Cc3cc(Br)c(Br)cc3CN(S(=O)(=O)c3ccc(C)cc3)CC2)cc1`, which TGI is on record?
**A.** > 100 µM

**Q.** How did the GI50 turn out when `[Cl][Cu][Cl]` was run?
**A.** > 10 µM

**Q.** What about the TGI of the same molecule?
**A.** > 10 µM

**Q.** Which results are given for `c1ccc(C2CCCCC2)c(OCCCCCN2CCNCC2)c1`?
**A.** GI50: 4.25 µM; TGI: 16.1 µM

**Q.** How did the TGI turn out when `CCOC(=O)C(CCCNC(=O)OC(C)(C)C)N(Cc1ccc(OC)cc1OC)C(=O)CC(=O)CP(=O)(OCC)OCC` (stereo not drawn) was run?
**A.** > 100 µM

**Q.** How did the TGI turn out when `CCOP(=O)(OCC)C(Cc1ccc(Cl)cc1)NS(=O)(=O)c1ccc(C)cc1` (stereo not drawn) was run?
**A.** > 100 µM

**Q.** Which TGI does the source give for `S=C(N/N=C/c1ccccn1)N1CCCCCC1` here?
**A.** > 100 µM

**Q.** Which TGI does the source give for `c1ccc2cc3c(cc2c1)OP1(Oc2cccc4cccnc24)(O3)Oc2cc3ccccc3cc2O1` here?
**A.** > 94.6 µM

**Q.** With `FC(F)(F)c1cccnc1Sc1nc2ccccc2s1` as the molecule, how does the TGI read?
**A.** > 100 µM

**Q.** For `c1ccc(CN2COc3c(ccc4c5c(ccc34)CN(Cc3ccccc3)CO5)C2)cc1`, which TGI is on record?
**A.** > 100 µM

**Q.** Which results are given for `Cc1ccc(Cl)cc1-n1c(C)nc2c(cnn2-c2ccnc3c(C(F)(F)F)cccc23)c1=O`?
**A.** GI50: > 100 µM; TGI: > 100 µM

**Q.** Which TGI does the source give for `C=CCNC(=O)CN(CC(=O)O)C1CCCCC1N(CC(=O)O)CC(=O)O` (stereo not drawn) here?
**A.** > 100 µM

**Q.** For `C=C1C2CCC3(CCC4C5(C)CCCC4(C=[N+](CCO)C5)C3C2)C1O` (stereo not drawn), which TGI is on record?
**A.** > 100 µM

**Q.** With `Oc1cccnc1/C=N/OCc1ccccc1` as the molecule, how does the TGI read?
**A.** > 100 µM

**Q.** What does the source list for `CC1SC(c2ccc(Cl)cc2)N(CCc2cccs2)C1=O` (stereo not drawn)?
**A.** GI50: 2.21 µM; TGI: 7.03 µM

**Q.** Which TGI does the source give for `CC(C)N(C(=O)C12C3C4C1C1C2C3C41C(=O)N(C(C)C)C(C)C)C(C)C` (stereo not drawn) here?
**A.** > 50 µM

**Q.** With `CC(N)CC(=O)O` (stereo not drawn) as the molecule, how does the TGI read?
**A.** > 5000 µM

**Q.** For `C#CCNC(=O)NC(CCCCNC(=O)OCc1ccccc1)C(=O)OCc1ccccc1` (stereo not drawn), which TGI is on record?
**A.** > 100 µM

**Q.** For `CSC1=Nc2c(c(C)c(-c3ccccc3)n2COC(CO)CO)C2=NC(=O)CN12`, which GI50 is on record?
**A.** > 100 µM

**Q.** What about the TGI of the same molecule?
**A.** > 100 µM

**Q.** Which TGI does the source give for `Nc1c(Cl)cc(-c2nc3ccccc3s2)cc1Cl` here?
**A.** > 100 µM

**Q.** How did the TGI turn out when `O=C(CC(=O)c1ccccc1)C(=O)Nc1ccc(Cl)cc1` was run?
**A.** > 100 µM

**Q.** How did the TGI turn out when `CCN1C[C@]2(C)CC[C@H](OC)C34C5C[C@@H]6[C@@H](OC)C[C@@](OC)(C5[C@H]6OCc5ccccc5)C(C13)[C@H](OC(C)=O)[C@@H]42` (stereo partly drawn) was run?
**A.** > 100 µM

**Q.** With `Nc1nc(C(=O)O)c(N=Nc2ccccc2)c(=O)[nH]1` as the molecule, how does the TGI read?
**A.** > 100 µM

**Q.** Which TGI does the source give for `Cc1ccc(NC(=O)/C(C#N)=C/c2ccccc2)c(C)c1` here?
**A.** > 100 µM

**Q.** Which TGI does the source give for `O=c1[nH]c2nc[nH]c2c(=O)n1C1CCCCC1` here?
**A.** > 100 µM

**Q.** Which GI50 does the source give for `CCn1ccnc1C(=O)/C=C/c1ccc(CC(=O)Nc2ccc(F)cc2)cc1` here?
**A.** 3.49 µM

**Q.** What about the TGI of the same molecule?
**A.** 15.6 µM

**Q.** What does the source list for `COC1=C(OC)C(=O)C(CCCCCCCCCCO)=C(C)C1=O`?
**A.** GI50: 17.3 µM; TGI: 32.4 µM
